Out of some 310,000 compounds screened, about 2,200 (0.71%) showed an effect of 50% or more. Effects have a minus sign here. The list shows a part of the results.

human ether-à-go-go-related gene (hERG) potassium channel, sequence (Q12809 whole entry, looked up): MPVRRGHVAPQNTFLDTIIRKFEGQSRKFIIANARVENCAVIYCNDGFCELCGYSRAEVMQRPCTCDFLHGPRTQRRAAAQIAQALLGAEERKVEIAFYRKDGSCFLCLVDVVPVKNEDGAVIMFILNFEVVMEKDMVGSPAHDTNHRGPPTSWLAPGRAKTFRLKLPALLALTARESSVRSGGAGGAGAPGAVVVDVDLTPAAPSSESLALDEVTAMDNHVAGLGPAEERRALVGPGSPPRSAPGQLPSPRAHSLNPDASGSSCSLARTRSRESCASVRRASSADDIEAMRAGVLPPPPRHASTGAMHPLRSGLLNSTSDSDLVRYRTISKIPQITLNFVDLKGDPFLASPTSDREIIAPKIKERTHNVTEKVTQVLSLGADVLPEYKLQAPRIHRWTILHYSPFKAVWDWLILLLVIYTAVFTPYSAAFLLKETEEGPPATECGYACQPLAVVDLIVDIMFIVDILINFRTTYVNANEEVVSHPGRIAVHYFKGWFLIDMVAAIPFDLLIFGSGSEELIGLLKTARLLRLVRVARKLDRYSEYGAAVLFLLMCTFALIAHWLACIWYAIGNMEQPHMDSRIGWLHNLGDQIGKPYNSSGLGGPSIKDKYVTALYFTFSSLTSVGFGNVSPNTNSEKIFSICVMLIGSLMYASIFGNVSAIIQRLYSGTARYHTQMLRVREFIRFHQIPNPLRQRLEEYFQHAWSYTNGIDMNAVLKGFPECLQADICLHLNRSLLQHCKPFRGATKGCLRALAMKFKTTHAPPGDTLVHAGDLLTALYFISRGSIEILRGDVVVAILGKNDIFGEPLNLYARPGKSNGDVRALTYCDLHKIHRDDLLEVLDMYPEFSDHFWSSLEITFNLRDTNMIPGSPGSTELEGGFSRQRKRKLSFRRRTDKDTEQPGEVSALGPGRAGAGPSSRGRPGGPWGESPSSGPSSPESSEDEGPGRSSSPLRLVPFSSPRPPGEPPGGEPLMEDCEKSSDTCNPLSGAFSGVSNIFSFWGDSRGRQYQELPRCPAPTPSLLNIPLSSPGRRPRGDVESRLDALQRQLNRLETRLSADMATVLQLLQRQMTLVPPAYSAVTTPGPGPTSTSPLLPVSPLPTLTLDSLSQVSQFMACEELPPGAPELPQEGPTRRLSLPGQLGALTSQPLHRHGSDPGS

This assay concerns the target human ether-à-go-go-related gene (hERG) potassium channel (human, UniProt Q12809). Nature of the assay: primary screen, population patch clamp on CHO cells stably expressing hERG.
As for `COc1ccc(OC)c(/C=C2\N=C(c3ccccc3)OC2=O)c1`, the “hERG current change (%, negative = inhibition) at 1uM” value turned out to be 13.9%. Then `C=CCN(CC=C)S(=O)(=O)c1ccc(C(=O)Nc2nnc(CSC)o2)cc1`, with -0.491%; and `Cc1c(C(=O)/C=C/N(C)C)nnn1-c1ccc(Cl)cc1Cl`, with 16.7%. With `N#CCCn1cc(/C=N/O)c(-c2ccc(Cl)cc2)n1`, the “hERG current change (%, negative = inhibition) at 1uM” value is -3.94%. Turning to `Cc1cc(=O)oc2c3c(cc(OCC(=O)N4CCC(C(=O)O)CC4)c12)OC(C)(C)CC3`, the “hERG current change (%, negative = inhibition) at 1uM” value amounted to 8.4%. For `COc1ccc(CC(=O)N2CCc3cc(OC)c(OC)cc3C2O)cc1OC` (stereo not drawn), the “hERG current change (%, negative = inhibition) at 1uM” value came out at 13.8%. As to `Cc1ccc(-n2cc(C(=O)O)c(=O)cc2C)c(C)c1`, the “hERG current change (%, negative = inhibition) at 1uM” value came to 12.7%.

For the compound `CCN1CCN(Cc2ccc(NC(=O)c3ccc(C)c(NC(=O)c4cc(-c5ccc(Br)cc5)n[nH]4)c3)cc2C(F)(F)F)CC1`, the “hERG current change (%, negative = inhibition) at 1uM” value worked out at 9.82%. Then `O=C(Cc1cccs1)NCc1ccc2c(c1)OCO2`, with 5.02%. In the case of `Cc1ccccc1NC(=S)NCCSc1ccc(Cl)cc1`, the “hERG current change (%, negative = inhibition) at 1uM” value was found to be 6.07%. `O=C(N/N=C/c1ccc2c(c1)OCO2)C(=O)Nc1ccccc1Cl`: the “hERG current change (%, negative = inhibition) at 1uM” value was found to be 8.95%. Then `COc1ccc(CCNC(=O)C2CCCN(c3ncccn3)C2)cc1` (stereo not drawn), with 1.11%; and `CCCC(c1nnnn1Cc1cccs1)N1CCN(C)CC1.Cl` (stereo not drawn), with 18.8%. As to `COC(=O)C1=C(c2ccc(Cl)c(C(F)(F)F)c2)C[C@@H]2CC[C@H]1N2C(=O)NCCOc1ccccc1`, the “hERG current change (%, negative = inhibition) at 1uM” value turned out to be 13.2%.

With `N#Cc1nc(-c2ccc(OCc3ccccc3Cl)cc2)oc1NCCCn1ccnc1`, the “hERG current change (%, negative = inhibition) at 1uM” value is given as -1.32%. In the case of `CCOC(=O)/C(C#N)=C/Nc1cc(F)ccc1C` it was 19.7%; in that of `COc1ccc(Br)cc1S(=O)(=O)Nc1ncccc1C`, 22.7%.

With `Cc1ccc(C(=O)N/C(=C\c2cn(S(=O)(=O)N(C)C)c3ccccc23)C(=O)NCCCn2ccnc2)cc1`, the “hERG current change (%, negative = inhibition) at 1uM” value is 10.1%. Consider `O=C(c1ccc2c(c1)OCCCO2)c1cccs1`, for which the “hERG current change (%, negative = inhibition) at 1uM” value is 4.46%.

On to `c1ccc(CCc2ccccc2-c2nc(-c3ccccn3)no2)cc1`, for which the “hERG current change (%, negative = inhibition) at 1uM” value is on record as 4.13%. With `Nc1nc(SCC(=O)N2CCCC2)[nH]c(=O)c1NC(=O)c1cccs1`, the “hERG current change (%, negative = inhibition) at 1uM” value worked out at 7.18%.

Consider `Cc1ccn2c(c1)nc(=S)n2C(=O)c1ccccc1`, for which the “hERG current change (%, negative = inhibition) at 1uM” value is on record as -1.09%. Regarding `COc1ccccc1CCc1nnc(CCC(=O)NCC2CCCO2)o1` (stereo not drawn), the “hERG current change (%, negative = inhibition) at 1uM” value was 11.6%. As to `O=C(CSc1ncn(-c2ccccc2)n1)Nc1ccc2c(c1)OCO2`, the “hERG current change (%, negative = inhibition) at 1uM” value came out at 4.46%.

For the compound `COC(=O)C1=C(C)N(C)C(=O)NC1c1ccc([N+](=O)[O-])o1` (stereo not drawn), the “hERG current change (%, negative = inhibition) at 1uM” value is listed as 9.15%. Regarding `O=C(Nc1ccc(N2CCOCC2)c(Cl)c1)c1cccnc1Cl`, the “hERG current change (%, negative = inhibition) at 1uM” value is 0.0718%. For the compound `COc1ccc(OC)c(NC(=S)NCCCN2CCOCC2)c1`, the “hERG current change (%, negative = inhibition) at 1uM” value was found to be 2.82%. Regarding `COc1ccc(N2CCN(C(=O)Nc3ccc(S(=O)(=O)N(C)C)cc3)CC2)cc1`, the “hERG current change (%, negative = inhibition) at 1uM” value worked out at 8.83%.

Consider `COc1ccc(C)cc1S(=O)(=O)N1CCC2(CC1)OCCN2S(=O)(=O)c1cccs1`, for which the “hERG current change (%, negative = inhibition) at 1uM” value is listed as 4.3%. Then `c1ccc(CCn2nnnc2CN2CCC(n3nnc4ccccc43)CC2)cc1`, with -18.4%; and `O=C(CCC(=O)N1CCOc2ccccc21)NCCN1CCOCC1`, with 7.35%.

Turning to `O=C(NC1CCCCCC1)C1CCN(S(=O)(=O)c2ccc(F)cc2)CC1`, the “hERG current change (%, negative = inhibition) at 1uM” value is 7.17%. In the case of `CCn1c(CSc2nc3ccccc3s2)nnc1SCC(=O)OC(C)(C)C` it was -15.4%. For the compound `CC(C)Cc1nc2sc3c(c2c(=O)n1N)CC(C)(C)OC3`, the “hERG current change (%, negative = inhibition) at 1uM” value is given as 4.88%. Then `CCCCNC(=O)CCNS(=O)(=O)c1ccc(Br)cc1`, with -7.26%; and `O=[N+]([O-])c1ccc(C[n+]2cc(-c3ccc(Cl)c(Cl)c3)n3c2CCCCC3)cc1.[Br-]`, with 0.678%. In the case of `NC(=O)c1ccsc1NC(=O)COC(=O)c1ccc(Cl)c(N)c1` it was 4.13%; in that of `Cc1nc2nc(-c3ccc(Cl)cc3)[nH]n2c(=O)c1Cc1ccccc1`, 9.81%. Consider `O=C(O)c1ccccc1NC(=S)NC(=O)c1sc2ccccc2c1Cl`, for which the “hERG current change (%, negative = inhibition) at 1uM” value was found to be 16.1%. As for `CCN(C(=O)COc1ncnc2scc(-c3ccc(F)cc3)c12)C1CCS(=O)(=O)C1` (stereo not drawn), the “hERG current change (%, negative = inhibition) at 1uM” value is reported as 8.85%. For the compound `CC(C)Sc1nc2sccc2c(=O)n1-c1ccccc1`, the “hERG current change (%, negative = inhibition) at 1uM” value was determined as 12.7%. Consider `CC(C)(/C=N/O)/[N+]([O-])=C/C=[N+](\[O-])C(C)(C)/C=N/O`, for which the “hERG current change (%, negative = inhibition) at 1uM” value worked out at 5.25%. Consider `COC1CCCN(Cc2nc(Cc3ccccc3F)no2)C1` (stereo not drawn), for which the “hERG current change (%, negative = inhibition) at 1uM” value was 10.9%. As for `CCOC(=O)C1CCN(C(=O)c2cc(C(C)(C)C)nn2Cc2ccccc2)CC1`, the “hERG current change (%, negative = inhibition) at 1uM” value worked out at 6.03%. Then `CN1CCN(C(=S)NC(=O)c2ccc(S(=O)(=O)N3CCOCC3)cc2)CC1`, with 26.9%. As to `CCOC(=O)c1cc(CC)sc1NC(=O)Cc1ccccc1`, the “hERG current change (%, negative = inhibition) at 1uM” value is recorded as 13.9%. In the case of `Cc1ccc(S(=O)(=O)Nn2c(C)ccc2C)cc1` it was 5.59%; in that of `C/C(CC(=O)Nc1ccc2c(c1)OCO2)=N\NC(=O)C(c1ccccc1)c1ccccc1`, 6.43%.

Regarding `O=C(NC(=S)NCc1ccc(F)cc1)c1ccccc1`, the “hERG current change (%, negative = inhibition) at 1uM” value is reported as 1.5%.

With `O=C(CN1CCN(c2ccc(F)cc2)CC1)Nc1ccccc1Br`, the “hERG current change (%, negative = inhibition) at 1uM” value was 10.4%. Regarding `O=C(c1cc(-c2ccc3c(c2)OCO3)on1)N1CCCCC1`, the “hERG current change (%, negative = inhibition) at 1uM” value was 9.25%. As to `Cc1cc(C(=O)NCc2cccs2)n(-c2ccccc2)n1`, the “hERG current change (%, negative = inhibition) at 1uM” value is reported as -4.45%.

For the compound `Cc1cc(NC(=O)CCC(=O)N(Cc2ccco2)C(C(=O)NC2CCCC2)c2ccc(F)cc2)no1` (stereo not drawn), the “hERG current change (%, negative = inhibition) at 1uM” value stood at 11.7%. As to `CCOC(=O)COc1ccsc1C(=O)OC`, the “hERG current change (%, negative = inhibition) at 1uM” value was 6.87%. In the case of `OCCC1CN(Cc2cccn2-c2cccnc2)CCN1Cc1ccc(F)cc1` (stereo not drawn) it was -21.4%; in that of `COc1ccc(/C=C2\CCc3ccccc3C2=O)cc1CN1CCOCC1`, 7.81%; in that of `COc1ccc(CN(CC(=O)NCc2ccco2)C(=O)CCC(=O)Nc2nccs2)cc1`, 13.5%.

For the origin of these results see PMC4336329 (PLoS ONE, 2015).
